Data as given in the supplement of paper PMC11417369.
This is one part of the list.

tested on: PfAP2-HC AP2 domain (GST-tagged); assay: gcPBM binding intensity (ln(normalized median fluorescence intensity)); higher = stronger DNA binding
Method in brief: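 Probes on an Agilent 4 × 180k array were primer-extended, double-stranded and 36 bp long, taken from intergenic genomic regions, with negative controls added. GST-tagged P. falciparum DNA-binding domains from E. coli, about 25 μg on average, were applied to the array for 1 h in 1× PBS containing 1% milk, 0.2 mg/ml BSA, 0.5% salmon testes DNA and 0.03% Triton X-100. Binding intensity, obtained after Alexa488 anti-GST antibody detection and a 488 nm scan, is the highest Masliner-normalised natural-log median intensity across replicate spots of either probe orientation.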

Sequence	gcPBM binding intensity (ln)
TTTTGTTATGGTTTGATGCACTTATATATAAATATT [GTGCAC_site9705]	9.86
ATGTAGATAAAACGTGTGCACATGTTTTTTGTTATT	10.5
CACAGTGATATAAAAACACACATGAATTATAATTTC [CACACA_site1667]	9.75
ATATATATATATATATGTACTTATTACCAATGTTAG [XGTACX_site1896]	9.56
AAGCCCATTATTAAATGTACAAAATTTTATAAACTA [XGTACX_site7800]	9.35
TAAAACATATATACAAGTACACAAAGGATATATATA [XGTACX_site3710]	9.85
GTATATATGTATATATGTACATATATATAATATATT [XGTACX_site56]	9.63
CAGTGCCAAATTAGCACACACATATATACATGAATT [CACACA_site2814]	9.93
TATAGGTATTTATATACACACATATTCTTTTTACAC [CACACA_site6686]	9.92
AAATTAAAATAAAAATGTACATATAAAGACACAACT [XGTACX_site3132]	10.2
CTTACCAAAAGACACACACACACAAGATATATAAAT [CACACA_site6964]	10.4
TACAATATTTTGAGACGTACATATATACATTTACAT [XGTACX_site5880]	9.84
TGAACTTACTTGGACATACACACATATATATATATA [CACACA_site2977]	9.85
TATATATATATACCAACACACATACAGATATATATA [CACACA_site5060]	10.1
TTTATATACAAAAATGCACACGAAAAGTAATATATA [CACACA_site9387]	9.8
TGTAAGTCGTTATAAGCACACACATAAATAAAAATA [CACACA_site8448]	9.99
ATTTAAATACAAAATTGTACTTTTCTATATTTAACA [XGTACX_site6146]	9.55
AAATTTTAAATAGTATGTACGTATGAAATATATATG [XGTACX_site7511]	9.7
ACCCATTTAACAAAATGTACATTATTATAATTACTT [XGTACX_site7105]	9.72
TTTGGAAAAAAATTATTTAAACGATATGAATTGATG [XGTACX_negctrl_site506]	9.38
AAAATTTTACAGAAGGTGCGTATATTTTCCTGCTTA [GTGCAC_site9643]	9.65
AATCATCTCATAAAAATTAATTAGTGTATGTCTTTT [TGCATGCA_negctrl_site416]	9.6

Sequence	gcPBM binding intensity (ln)
CTACTTATAAATAGAACACACATAAGTGTATTTGTA [CACACA_site3759]	9.64
ACAATATAGATTAAAAGTACAAATAGTAAATTATAT [XGTACX_site3165]	9.85
TCTTAAATATATAAATTGAAAAATATAAAAGTAATA [CACACA_negctrl_site1558]	9.19
AAAACAATATACTGTAGTACTGATGATATATATATA [XGTACX_site7798]	9.8
ATAAAAAAAAATAGCACACATAAATATATTATATAT [CACACA_site767]	10.1
AAAAAATACCTCTATAGTACATATATATAATATTTA [XGTACX_site7222]	9.58
AAAAAAAATTTATTTGCATGCAAAAAAAAAAAAAAA [TGCATGCA_site67]	9.39
TAATTATGTATGAACTGTACAGGTTATTTTATTTTA [XGTACX_site5204]	9.61
TAAAATTTAAATTATACACACTTAAGTAACATCATC [CACACA_site4450]	9.73
ATTTATTTCACAAAAACATGCAGTTTGAAATTGCCA [TGCATGCA_site910]	9.39
AATTCATTATATATACGTACATATTTCTGTATAAAA [XGTACX_site6371]	9.51
GCATAAATTATCATAACATAAATATAAAAATATAAT [GTGCAC_negctrl_site55]	9.63
GATTATTTTATAAGTACACACATTTATATATAATAA [CACACA_site2573]	9.68
TTATATAGGTCATTCATAAATACAGTTTTTAAAAAA [CACACA_negctrl_site1340]	9.47
TTCATGCTTATATGTGCACACACAAAAGAAAAGAAA [CACACA_site1656]	10.1
AAATAATAAATTATAACACACATATATATATATATA [CACACA_site4045]	9.6
ATAATACAATTTATAACACACACACTATAATACATA [CACACA_site8338]	10.4
GGAAAGACAGTTCACAGTACCCAGTAACTCTACGGA [XGTACX_site2009]	9.55
TTTCACCATATAAACGTGCACACTACAAAAATATAT [CACACA_site2547]	9.72
AAATAATGAAACAAAGTGCATAAAAATATACATATA [GTGCAC_site9467]	9.85
CATTAAAATATGAGATGTACACAATATCTATTATAT [XGTACX_site4979]	9.63
ATGGATTATACGTGCACACATATATACCAATAAATA [CACACA_site4524]	9.99

Sequence	gcPBM binding intensity (ln)
ATTTAAATATCTTCTTTTTTTTTTTTTTTTGAAATT [CACACA_negctrl_site1074]	9.21
GAGCGTAATCTATTTGCACACTTATTTGTTCTTAAA [CACACA_site673]	9.87
GTGTATAATATAGGATGTACAATAAAACACCGATTG [XGTACX_site7429]	9.82
TTGTTTATCAACAGCACACACAACAACAACAACAAC [CACACA_site458]	9.99
ATAAAAACATAAACAAATCAAAAAAAAAAAAAAAAA [CACACA_negctrl_site13]	8.9
AATGGCAAAATAGGCACACACACATATACATATATA [CACACA_site1058]	10.9
TGTGCACATAATTAGTGTACATTTTTTATTTAGACA [XGTACX_site317]	9.45
AATTATATTTGAAATACACACATAAAAATCATATAG [CACACA_site3468]	9.82
AAAAAAAAAAAAAATACACACATATAAATATAAATA [CACACA_site6189]	9.85
CTTATTGATTTAAAAAGTACATATATGTATATACAC [XGTACX_site4072]	9.59
ATTAGAGAATCGTAACCCAAATGAACATACTTAAAT [GTGCAC_negctrl_site363]	9.61
AGATTTAAATATCATACACACTTTATATATAATACA [CACACA_site4688]	9.7
GTGTACAGACACAAAATATATACATATATATATATA [CACACA_negctrl_site1796]	9.51
TGTTATATGTTCAAATGTACAAATCATATACATGTT [XGTACX_site3192]	9.64
AATATATAAACCGAACGTACATATTTTTTATACACC [XGTACX_site2121]	9.75
ATTATTTTCTCATAGAGTACAAATGTTGTTGTTGTC [XGTACX_site1062]	9.61
TATTTTCATAATAAAAAAAAATAATTTAAAAAATAT [CACACA_negctrl_site748]	9.26
TTTTTATTTTTAGTAGTGCATTAATCATATGGTCAT [GTGCAC_site9879]	9.53
TAAATAAATCCACATACACACACGACGCTAGTATAT [CACACA_site1060]	9.97
AATATTTTATTTTTTCTCATTAAAAATTTTTTTTTT [CACACA_negctrl_site364]	9.52
GATAGATAATATTTTAGTACATAAACAATTAAATAT [XGTACX_site4125]	9.64
ATAATATTTTATAATTGTACTTTTTATAAATATAAA [XGTACX_site1940]	9.39

Sequence	gcPBM binding intensity (ln)
CATATTTACATTAAGTGTACTTATGAATATATATAC [XGTACX_site7962]	9.62
AAAATACATATATATATATATAATATTGTTGTTAAA [GTGCAC_negctrl_site519]	9.64
ATATTTTTTTTCATTTGTACACATAAAATTATATAG [XGTACX_site8260]	9.68
ATTATTCGTTTTAAATGTACTCATATAAACGATAAA [XGTACX_site7866]	9.28
CAAAAGAAGGTAAACACACACACACCCATACAAAAA [CACACA_site3765]	10.7
TTTTATAATTTCAAAGGATTCTTTAATATTATAAAT [CACACA_negctrl_site1812]	9.32
AAATTATATATAATAAATAATTTCTTTTTCTAAAAG [CACACA_negctrl_site8]	9.22
AAAAAAAAAAAAAAAAGTACACACTTTTGCCTACAT [XGTACX_site6583]	9.73
AATAATTGCTAAAGGTGTACAATACGTATATAAGAA [XGTACX_site4910]	9.95
TACAGAAATTTATATATATATATATATATATATATA [XGTACX_negctrl_site209]	9.61
AAATCAAAAACGTTTACACACATTCTTATTTAAATA [CACACA_site790]	9.79
TGAGACATGAATGCAAGTACAAAAAGGAGAACAAAA [XGTACX_site6183]	9.67
TACATATATTTTTTATGTACTTACTTGTGTGTTTAT [XGTACX_site5126]	9.87
AAATGTTGAAATGATACACACATATATATATATATA [CACACA_site2517]	9.71
TTTATTAAAACAAAATGTACACACATATAATTTAAT [XGTACX_site1637]	9.7
TAAATTCTGTTTAAAAGTACAAATAATATTGTGCCT [XGTACX_site7805]	9.53
TTAATCTTCATAAAATGTACAGAAGATTGAATATTC [XGTACX_site6213]	9.35
TGAAAGTGTATTAAAGTGCATATTATTTTATCTACC [GTGCAC_site9969]	9.69
TTAATAACAAAATAAACACACATATATAAATACACA [CACACA_site6849]	10.5
TTATATTTTTTTTGTAGTACATTATAGAATACACAC [XGTACX_site969]	9.79
ATATATATTCATAATACACACATTCTGTAGCATTAT [CACACA_site2067]	9.9
ATAGTATCTGGTAGCTGTACGAATGGTAGAGAGTAG [XGTACX_site2548]	10.1
